The values below come from patent publication US20260139047A1 (JIANGSU HENGRUI PHARMACEUTICALS, published 2026).

Broadly, the Kd is the concentration at which binding is half-saturated. Lower therefore signals tighter binding.

For experiment [1], the target named is T1, IL-2Rβ (CD2-H5221, Acrobiosystem) (UniProt P14784 27-239).
T1 construct: Bought soluble reagent
T1 sequence (looked up): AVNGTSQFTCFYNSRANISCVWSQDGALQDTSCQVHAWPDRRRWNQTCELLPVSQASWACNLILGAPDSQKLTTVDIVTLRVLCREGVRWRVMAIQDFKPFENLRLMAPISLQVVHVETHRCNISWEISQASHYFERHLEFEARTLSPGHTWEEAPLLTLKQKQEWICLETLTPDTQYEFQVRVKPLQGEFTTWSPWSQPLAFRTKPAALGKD
Put plainly: Octet (BLI), steady-state fit, fusion protein stationary, IL-2Rβ mobile.

Experiment [2] addresses T2, IL-2Rα (ILA-H52H9, Acrobiosystem) (UniProt P01589 22-213).
T2 construct: Bought soluble reagent
T2 sequence (looked up): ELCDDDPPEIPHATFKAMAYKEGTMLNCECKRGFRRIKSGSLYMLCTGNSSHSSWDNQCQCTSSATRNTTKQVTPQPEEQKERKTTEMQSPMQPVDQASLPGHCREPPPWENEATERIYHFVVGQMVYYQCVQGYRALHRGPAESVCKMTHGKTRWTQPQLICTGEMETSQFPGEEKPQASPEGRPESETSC
The experiment can be described thus: Octet (BLI), fusion protein on Protein A sensor, IL-2Rα in solution.

B1: D3-68-b (other)
heavy: QVQLVQSGPEVKKPGASVKVSCKASGYTFTSYGISWVRRAPGQGLEWMGWISAYNGNTNYAQKLQGRVTMTTDTSTSTAYMELRSLRSDDTAVYYCARDLQSPTYYYGSGVIDYWGQGTLVTVSS[human IgG1 constant region with changes not listed]
light: [about 150 residues not listed]GGGGSGGGGSGGGGSGGGGSGGGGSDIQLTQSPSTLSASVGDRVTISCRASRAVSPWLAWYQHRPGQAPKLLIYAASSLQSGVPSRFSGSGSGTDFTLTISSLQPEDFATYYCQQYRSYPFTFGPGTTVDIRRTVAAPSVFIFPPSDEQLKSGTASVVCLLNNFYPREAKVQWKVDNALQSGNSQESVTEQDSKDSTYSLSSTLTLSKADYEKHKVYACEVTHQGLSSPVTKSFNRGEC
For B1, binding in experiment [1] was put at a Kd of 0.0011 pM. In addition, in experiment [2], the binding result is “no binding (tested: 100 nM-3.125 nM)”.

B2: A3-21-a (other)
heavy: [about 150 residues not listed]GGGGSGGGGSGGGGSGGGGSGGGGSEVQLLESGGGLAQPGGSLRLSCAGSGFTFSSYAMSWVRQAPGKGLEWVSGITGTGYRTYYADSVKGRFTVSRDNSRNTVYLQMNSLRAEDTAVYYCVRESGHYYGWFDSWGQGTLVTVSS[human IgG1 constant region with changes not listed]
light: QSALTQPPSVSGAPGQRVTISCTGSSSNIGAGYNVHWYQQVPGTVPKLLIDGKGNRPSGVPDRFSGSKSGTSASLAITGLQAEDEADYYCQSYDYMLSGSVVFGRGTKLTVLGQPKANPTVTLFPPSSEELQANKATLVCLISDFYPGAVTVAWKADGSPVKAGVETTKPSKQSNNKYAASSYLSLTPEQWKSHRSYSCQVTHEGSTVEKTVAPTECS
With B2, the binding result in experiment [2] is “no binding (tested: 100 nM-3.125 nM)”.
